Reference: paper PMC4336329 (PLoS ONE, 2015)
The whole screen tested about 310,000 compounds, of which about 14,000 (4.5%) showed an effect of 50% or more. The effect is printed as a negative number. The list shows a part of the results.

Each compound was assayed against human ether-à-go-go-related gene (hERG) potassium channel (human, UniProt Q12809) (assay: primary screen, population patch clamp on CHO cells stably expressing hERG).
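Note: peak tail current of the secondary pulse compared with the same well before compound.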

human ether-à-go-go-related gene (hERG) potassium channel, sequence (Q12809 whole entry, looked up): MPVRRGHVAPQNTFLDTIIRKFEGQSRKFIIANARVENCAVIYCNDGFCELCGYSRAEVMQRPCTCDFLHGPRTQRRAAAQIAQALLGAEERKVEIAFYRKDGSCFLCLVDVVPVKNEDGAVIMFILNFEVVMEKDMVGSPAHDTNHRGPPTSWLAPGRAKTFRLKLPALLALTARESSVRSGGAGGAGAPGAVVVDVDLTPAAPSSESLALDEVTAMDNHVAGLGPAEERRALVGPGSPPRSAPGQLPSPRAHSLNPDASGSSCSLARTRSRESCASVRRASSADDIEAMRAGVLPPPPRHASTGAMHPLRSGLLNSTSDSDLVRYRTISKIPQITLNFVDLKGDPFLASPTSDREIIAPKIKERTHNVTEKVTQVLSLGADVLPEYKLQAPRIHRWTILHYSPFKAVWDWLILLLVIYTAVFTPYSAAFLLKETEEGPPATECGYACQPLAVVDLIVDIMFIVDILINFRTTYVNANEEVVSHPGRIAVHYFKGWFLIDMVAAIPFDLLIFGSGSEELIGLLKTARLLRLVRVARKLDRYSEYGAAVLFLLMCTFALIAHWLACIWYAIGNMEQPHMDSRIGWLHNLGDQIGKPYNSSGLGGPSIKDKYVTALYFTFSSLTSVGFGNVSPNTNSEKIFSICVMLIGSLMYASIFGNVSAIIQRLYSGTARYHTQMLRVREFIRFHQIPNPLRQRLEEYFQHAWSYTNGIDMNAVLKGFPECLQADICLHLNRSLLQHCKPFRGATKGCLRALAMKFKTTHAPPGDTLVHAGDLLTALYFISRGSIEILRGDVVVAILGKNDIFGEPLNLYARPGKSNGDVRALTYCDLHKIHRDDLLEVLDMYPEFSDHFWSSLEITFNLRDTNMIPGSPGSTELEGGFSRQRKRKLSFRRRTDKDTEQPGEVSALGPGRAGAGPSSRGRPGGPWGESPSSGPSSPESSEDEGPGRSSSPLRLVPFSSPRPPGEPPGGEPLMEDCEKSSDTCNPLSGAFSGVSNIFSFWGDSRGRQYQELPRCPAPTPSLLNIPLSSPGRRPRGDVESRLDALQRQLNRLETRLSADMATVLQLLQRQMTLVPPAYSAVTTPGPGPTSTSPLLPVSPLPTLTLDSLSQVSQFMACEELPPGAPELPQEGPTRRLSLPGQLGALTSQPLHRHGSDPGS

SMILES	hERG current change (%, negative = inhibition) at 10uM
Cc1ccc(C(=O)NCc2ccccn2)cc1S(=O)(=O)N1CCCCC1	9.25%
O=C(Nc1ccc(/C=C/c2nc3ccccc3o2)cc1)c1ccc(F)cc1	6.41%
CC(=O)/C(=N/Nc1ccc(Br)cc1)Sc1cccc2cccnc12	3.52%
CCn1c(=O)cc(OCC(=O)Nc2cccnc2)c2ccccc21	6.17%
COc1ccc(N2CCN(C(=O)c3ccc(C)cc3Cl)CC2)cc1	-24.4%
O=C(COc1ccc(Cl)cc1)Nc1ccccc1Cl	3.26%
CC1Cc2c([nH]c3ccccc23)C(=O)N1 (centres unmarked)	19.2%
COc1cc(OC)cc(C(=O)Nc2ccc(C(=O)c3ccncc3)cc2)c1	-40.2%
CSc1cccc(NC(=O)/C=C/c2ccco2)c1	1.51%
COC(=O)c1c(NC(=O)COC(=O)[C@@H](NS(=O)(=O)c2ccc(C)cc2)C(C)C)sc2c1CCC2	1.93%
CCC(=O)N(Cc1ccco1)Cc1cc2cc3c(cc2[nH]c1=O)OCO3	13.9%
O=C(C1CCN(S(=O)(=O)c2cccs2)CC1)N(c1ccccn1)C1CCCCC1	13.4%
CCCCC(=O)Nc1cccc(NC(=O)c2ccc(Br)cc2)c1	32.9%
COc1ccc(/C=N/n2c(SC)nnc(C(C)(C)C)c2=O)cc1OC	-20.9%
CC(=O)N[C@@H](CC(=O)O)C(=O)O	6.54%
CCn1c(SCC(=O)OC)nnc1C1CCCCC1	6.57%
COc1ccc(OCC#CCN2CCNCC2)cc1.O=C(O)C(=O)O	21.6%
CCN1C(=O)CSc2ccc(C(=O)NCc3ccco3)cc21	4.44%
COC(=O)c1ccc(COC(=O)C(CCS(C)(=O)=O)N2C(=O)c3ccccc3C2=O)cc1 (centres unmarked)	-13.9%
O=C(NCCC1CCCCN1S(=O)(=O)c1cccs1)C(=O)Nc1ccccc1 (centres unmarked)	-10.1%
Cc1nc2ccccc2c2c1C(=O)NC2=O	-1.6%
O=C(COc1ccc(Br)cc1)N/N=C1/SCC(=O)N1Cc1ccco1	-59.8%

SMILES	hERG current change (%, negative = inhibition) at 10uM
Cc1ccc(NC(=O)C(=O)NCCN2CCN(S(=O)(=O)c3ccccc3)CC2)cc1C	16.3%
O=C(NCCC1CCCCN1S(=O)(=O)c1ccccc1)C(=O)NCc1ccc(F)cc1 (centres unmarked)	-45.4%
COc1ccc(C(=O)C2CCCN(C(=O)c3cccs3)C2)cc1F (centres unmarked)	-8.95%
Cc1cc(C)c(S(=O)(=O)NCCCn2ccnc2)cc1C	4.04%
Cc1cc(OC(C)C(=O)NCc2cccnc2)c2c(C)cc(=O)oc2c1 (centres unmarked)	-31.3%
O=C(COC(=O)c1cnc(Cl)c(Cl)c1)NCc1ccco1	-9.32%
NC(=O)CCN1CCN(S(=O)(=O)/C=C/c2ccccc2)CC1	4.68%
COc1ccccc1Nc1nc2cc(C)ccc2cc1C#N	3.81%
NC(=S)Nc1ccc(Oc2ccc(NC(N)=S)cc2)cc1	12.8%
CCN(Cc1ccccc1)S(=O)(=O)c1ccc(C(=O)N2CCN(c3nc4ccccc4s3)CC2)cc1	4.79%
C=C(NC(C)=O)c1c(F)cccc1F	14.9%
O=S(=O)(Cc1ccccc1)c1nc2ccccc2n1Cc1ccccn1	-0.831%
CCOC(=O)C1=C(CNCc2ccccc2Cl)NC(=O)NC1c1cccc([N+](=O)[O-])c1 (centres unmarked)	-12.8%
COc1ccc(/C(C)=N\Nc2nc(-c3ccc(Cl)cc3)cc(C(F)(F)F)n2)cc1OC	-9.16%
Cc1nc2cccc(C(=O)Oc3ccc([N+](=O)[O-])cc3)c2o1	-25%
O=C(Nc1cn(-c2ccccc2)nc1-c1cccs1)c1ccco1	-11.9%
COc1ccc(N2CCN(S(=O)(=O)c3ccc4c(c3)CCCC4)CC2)c([N+](=O)[O-])c1	6.51%
CCN1CCCc2cc(CN(CCN3CCOCC3)C(=S)Nc3ccccc3OC)ccc21	-11.3%
Cn1c(=O)[nH]c(=O)c2c1nc(N1CCCCC1)n2CCSc1ncccn1	-0.771%
CCC(NC(=O)Nc1nccs1)(C(F)(F)F)C(F)(F)F	-8.16%
O=C(Nc1cccc2ncccc12)C12CC3CC(CC(C3)C1)C2	-6.2%
O=C(CNC(=O)c1ccco1)N/N=C/c1cc(Br)ccc1O	18.2%
